Values joined by “and” are separate entries in the source; they are usually repeats but may differ in a detail not shown here. Identical values can stand only once. In all, about 420,000 compounds went through this assay and about 50,000 (12%) were called active. Inconclusive results, whose numbers are uncertain, are shown with a selection of clear calls. The call rests on the fitted dose curve; in most records, active means well fitted inhibition curve with a large enough effect; inconclusive means small, poorly fitted or top-dose-only effect; inactive means flat fitted curve, though single readings scatter. Potencies beside an inconclusive call are fits to weak or partial responses and may not hold up.
Assay: qHTS for Inhibitors of human tyrosyl-DNA phosphodiesterase 1 (TDP1): qHTS in cells in presence of CPT; further: nearly all actives have a fitted effect of over 55% in size
Details: chicken DT40 Tdp1-/-;hTDP1 cells + 20 nM CPT, ATP luminescence, 48 h; activity change, negative = growth inhibition: at 46.2 µM (top of the series)
Summary of the method: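 Cell growth measured by CellTiter-Glo luminescence after a minimum 48 h, 37 C compound exposure with 20 nM CPT in Tdp1-knockout DT40 cells stably expressing hTDP1, seeded 400/well; qHTS titration format.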
On the % scale 0 is the no-effect control and ±100 the full control effect; potency means the concentration at half of the fitted maximal effect; tags describe the fitted curve by direction and shape.

Row | Structure (SMILES) | Potency | activity change, negative = growth inhibition
1 | O=C(CCNC(=O)c1ccc([N+](=O)[O-])cc1)NCCc1ccccc1 | inconclusive: 29.1 µM [inhibitor, single point] | –
2 | O=C(Nc1ccccc1O)c1ccc(NC(=O)C2CC2)cc1 | active: 11.6 µM | –
3 | C/C=C1\COC(C(=O)NCc2ccccc2)(C(F)(F)F)C=C1C=C(C)C (configuration not stated) | inconclusive: 16.4 µM [inhibitor, single point] | –
4 | CCc1cc2c(-c3ccccc3)cc(=O)oc2cc1OC(C)C(C)=O (configuration not stated) | inconclusive: 32.6 µM [inhibitor, single point] | –
5 | Cc1ccc(NS(=O)(=O)c2ccc(C(=O)NC3CCN(Cc4ccccc4)CC3)cc2)cc1 | active: 14.6 µM | –
6 | c1ccc2c(NCCN3CCOCC3)nc(-c3ccc4c(c3)OCO4)nc2c1 | inconclusive: 16.4 µM [inhibitor, single point] | –
7 | COc1ccc(-c2cc3nc(C)c(CCC(=O)NC(C)CCc4ccco4)c(C)n3n2)c(OC)c1 (configuration not stated) | inconclusive: 25.9 µM [inhibitor, single point] | –
8 | C[C@@]12C(=O)N(c3ccc(Br)cc3)C(=O)N1[C@@H]1c3ccccc3OC[C@@H]1[C@H]2c1ccccc1 | inconclusive: 25.9 µM [inhibitor, single point] | –
9 | CCn1nnnc1SCC(=O)Nc1nnc(C(C)C)s1 | inconclusive: 32.6 µM [inhibitor, partial curve] | –
10 | CC(C)N(C(=O)COC(=O)c1ccccc1C(=O)N1CCN(c2ccc(F)cc2)CC1)C(C)C | – | inconclusive: -32.4% [inhibitor]
11 | Cc1ccccc1C(NC(=O)C1CCN(Cc2ccc(Oc3ccccc3)cc2)CC1)c1ccsc1 (configuration not stated) | active: 18.4 µM | –
12 | COc1ccc(C2C(C#N)=C(N)N(c3cccnc3)C3=C2C(=O)CC(C)(C)C3)cc1OC (configuration not stated) | active: 23.1 µM | –
13 | CN(C)CCOC1(Cc2ccc(F)cc2)CCC(C(C)(C)C)CC1 (configuration not stated) | inconclusive: 23.1 µM [inhibitor, single point] | –
14 | CCCN(CC1CC1)c1nc(N)c2c(N)nc(OC)cc2c1C#N | active: 16.4 µM | –
15 | CCN1CCN(c2oc(-c3ccc(OC)cc3)nc2C#N)CC1 | inconclusive: 16.4 µM [inhibitor, single point] | –
16 | O=C(N/N=C/c1ccccc1Br)c1ccc(CSc2cccc3cccnc23)cc1 | inactive | –
17 | Cc1cc(-c2ccccc2)[nH]c(=O)c1S(=O)(=O)c1ccc(Cl)cc1 | inconclusive: 18.4 µM [inhibitor, single point] | –
18 | O=C(/C=C/c1ccco1)OCc1nnc(-c2ccc(Cl)cc2)o1 | inactive | –
19 | Cc1ccc(C(=O)Nc2cccc3ccccc23)o1 | – | inconclusive: -32.5% [inhibitor]
20 | O=C(COC(=O)Cc1n[nH]c(=O)c2ccccc12)NNC(=O)c1ccc(Cl)cc1 | active: 20.6 µM | –
21 | O=C(CC(=O)Nc1ccc(Br)cc1)Nc1ccc(Br)cc1 | inactive | –
22 | CC(CCc1ccc(O)cc1)NCCC(c1ccccc1)c1ccccc1 (configuration not stated) | inconclusive: 25.9 µM [inhibitor, single point] | –
23 | CCOC(=O)N1CCC(NC(=O)C2CCN(C(=O)N3CC(C)Oc4ccccc43)CC2)CC1 (configuration not stated) | inconclusive: 4.11 µM [inhibitor, full curve] | –

Row | Structure (SMILES) | Potency | activity change, negative = growth inhibition
24 | O=C(NCCN1CCN(Cc2ccccc2Cl)CC1)Nc1ccccc1 | – | inconclusive: -31.3% [inhibitor]
25 | O=C1/C(=C/c2ccc(C(=O)O)cc2)CCC/C1=C\c1ccc(C(=O)O)cc1 | inactive | –
26 | CC(=O)Nc1cccc(-c2nc3ccccc3n2C(C)C(=O)NC(C)(C)C)c1 (configuration not stated) | – | inconclusive: -1.85% [inhibitor]
27 | CC(=O)N1N=C(c2cccc(NS(=O)(=O)c3ccc(C)cc3)c2)CC1c1ccco1 (configuration not stated) | inconclusive: 29.1 µM [inhibitor, single point] | –
28 | Cc1ccc(O)c(-c2n[nH]c3c2C(c2ccccc2F)N(Cc2ccco2)C3=O)c1 (configuration not stated) | inconclusive: 29.1 µM [inhibitor, single point] | –
29 | CCC(=O)N1CCc2cc(S(=O)(=O)NC(CC(C)C)C(=O)NCc3ccc(C)cc3)ccc21 (configuration not stated) | inconclusive: 18.4 µM [inhibitor, single point] | –
30 | CCC(=O)N1CCN(c2ccc(Cl)cc2NC(=O)c2ccc(N3CCCC3)c([N+](=O)[O-])c2)CC1 | inconclusive: 16.4 µM [inhibitor, single point] | –
31 | COc1ccccc1N1CCN(S(=O)(=O)c2ccc3c(c2)NC(=O)C(C)S3)CC1 (configuration not stated) | inconclusive: 20.6 µM [inhibitor, single point] | –
32 | Cc1ccc(-c2nnc(SCC(=O)Nc3ccc4c(c3)oc3ccccc34)n2C)c(Cl)c1 | inconclusive: 29.1 µM [inhibitor, single point] | –
33 | CCn1cc(CNC(=O)C2CCC(=O)N(Cc3ccc(Cl)cc3)C2)cn1 (configuration not stated) | inactive | –
34 | Cc1cc(C)c(S(=O)(=O)Oc2ccccc2[N+](=O)[O-])c(C)c1 | active: 20.6 µM | –
35 | Cc1nc2ccccc2nc1OCC(=O)Nc1ccc(F)cc1 | inconclusive: 8.2 µM [inhibitor, partial curve] | –
36 | COC(=O)c1ccccc1NC(=O)C(C)c1ccc([N+](=O)[O-])cc1 (configuration not stated) | inconclusive: 20.6 µM [inhibitor, single point] | –
37 | O=C(Cc1coc2ccc3ccccc3c12)NC1CCCc2ccccc21 (configuration not stated) | inconclusive: 29.1 µM [inhibitor, single point] | –
38 | Cc1ccccc1OC1(C)CCN(Cc2ccc(-c3ccccn3)cc2)C1 (configuration not stated) | inconclusive: 18.4 µM [inhibitor, single point] | –
39 | COC(=O)C1=C(C)Nc2ccc(C)cc2S1 | inconclusive: 18.4 µM [inhibitor, single point] | –
40 | O=C(NCc1ccccn1)C(=O)N/N=C/c1ccccc1O | inconclusive: 29.1 µM [inhibitor, single point] | –
41 | CC1CN(C(=O)CCC(=O)NCc2ccccn2)c2ccccc2O1 (configuration not stated) | inactive | –
42 | Cc1sc2ncn(CC(=O)N3CCN(c4ccc(F)cc4)CC3)c(=O)c2c1S(=O)(=O)N1CCN(c2ncccn2)CC1 | inconclusive: 18.4 µM [inhibitor, single point] | –
43 | CCn1nc(C)cc1-c1n[nH]c(=S)n1N | inactive | –
44 | Cc1cc2[nH]c(=O)c(=O)[nH]c2cc1S(=O)(=O)Nc1cccc(C(F)(F)F)c1 | inactive | –
45 | CCOc1ccc(NC(=O)Cn2nnc(-c3ccccc3NC(=O)CC)n2)cc1 | inconclusive: 18.4 µM [inhibitor, single point] | –
46 | O=C(c1ccccc1)N1CCCC(c2ccc(Cl)cc2)=N1 | inconclusive: 32.6 µM [inhibitor, single point] | –

Row | Structure (SMILES) | Potency | activity change, negative = growth inhibition
47 | O=C(CN1C(=O)C2C3C=CC(C3)C2C1=O)OCC(=O)c1ccc(Cl)c([N+](=O)[O-])c1 (configuration not stated) | active: 20.6 µM | –
48 | CC(C)(C)NC(=O)C(c1ccc(-c2ccccc2)cc1)n1c(=O)c(-c2ccccc2)nc2ccccc21 (configuration not stated) | inconclusive: 23.1 µM [inhibitor, single point] | –
49 | CC[C@]12c3[nH]c4cc(-c5ccco5)ccc4c3CCN1C(=O)[C@@H](CC(=O)NCC13CC4CC(CC(C4)C1)C3)C[C@@H]2C(=O)N1CCN(C(=O)c2ccco2)CC1 | active: 9.2 µM | –
50 | Cc1cc(N)n2nc(-c3ccc(C(C)(C)C)cc3)cc2n1 | inconclusive: 29.1 µM [inhibitor, single point] | –
51 | COc1ccc(C(C(=O)NC(C)(C)C)N(C(=O)Cn2nnc3ccccc32)c2cccc(C(C)=O)c2)cc1O (configuration not stated) | inactive | –
52 | Cc1cccc2cc3c(N)c(C(=O)N4CCCc5ccccc54)sc3nc12 | active: 4.11 µM | –
53 | CCCCN(C)C(=O)Cn1cnc2sc(C)c(S(=O)(=O)N3CCN(c4ccccc4OC)CC3)c2c1=O | active: 23.1 µM | –
54 | Cc1ccc2cccc(OCC(=O)N3CC(C)CC(C)C3)c2n1 (configuration not stated) | inactive | –
55 | COC(=O)CSc1nc(N)c2c3c(sc2n1)C(c1ccccc1)SC(c1ccccc1)C3 (configuration not stated) | active: 4.11 µM | –
56 | O=C1c2oc3ccccc3c(=O)c2C(c2cccc(Br)c2)N1c1ccccn1 (configuration not stated) | inconclusive: 20.6 µM [inhibitor, single point] | –
57 | Cc1cccc(CN2CCN(C(=O)c3cccc4ccccc34)CC2)c1 | active: 16.4 µM | –
58 | Cc1ccccc1NC(=O)Nc1cccs1 | inconclusive: 23.1 µM [inhibitor, single point] and inconclusive: 29.1 µM [inhibitor, single point] | –
59 | O=C(COC(=O)c1cc(Br)c(Br)s1)NCCC1=CCCCC1 | active: 23.1 µM | –
60 | COC(=O)[C@@]12C[C@@H](CC(=O)NCCCCc3ccccc3)C(=O)N(Cc3cccc4ccccc34)C1=CCC(C)(C)C2 | inconclusive: 29.1 µM [inhibitor, single point] | –
61 | COc1ccc(/C=C/C(=O)c2ccc(O)cc2)cc1CN1CCOCC1 | inconclusive: 29.1 µM [inhibitor, single point] | –
62 | COc1ccccc1N1CCN(C(=O)c2cc3ccccc3[nH]2)CC1 | inconclusive: 18.4 µM [inhibitor, single point] | –
63 | CCOC(=O)c1c(NC(=O)C2CCN(S(=O)(=O)c3ccc(Cl)cc3)CC2)sc2c1CCCC2 | inconclusive: 23.1 µM [inhibitor, single point] | –
64 | CCOC(=O)c1n[nH]n(-c2cc(Cl)cc(Cl)c2)c1=O | inactive | –
65 | Cc1cc(C)c2nc(C(F)(F)F)nc(NCCCN3CCOCC3)c2c1 | inconclusive: 29.1 µM [inhibitor, single point] | –
66 | Cc1cc(C)n(-c2nc(SCC(=O)Nc3nccs3)c3c4c(sc3n2)COC(C)(C)C4)n1 | inconclusive: 29.1 µM [inhibitor, single point] | –
67 | C[C@@H](NC(=O)c1nc[nH]c1C(=O)OCc1ccccc1)c1ccccc1 | inconclusive: 18.4 µM [inhibitor, single point] | –

Reference: PubChem BioAssay AID686979 (National Center for Advancing Translational Sciences (NCATS), 2013)
